In PubChem BioAssay AID463173 (ICCB-Longwood Screening Facility, Harvard Medical School, 2010):
Screen size: about 52,000 compounds; about 4,300 (8.3%) were called active. Cut-off read from the data, not from the text of the source: active = survival mostly below about 52% (no sharp cut-off); inactive = mostly above about 56%. Some of the results follow.

test system: DeltatarO mutant; assay: S. aureus survival, RN4220 and DeltatarO strains – OD600, teichoic acid synthesis inhibitors, primary screen (AID 463173); details: S. aureus RN4220 wild type/DeltatarO growth, OD600, 18 h, hits give low values, screened at 18.75 µg/mL (by protocol)

| SMILES | survival |
| --- | --- |
| CN(c1ccc(C(=O)N2CCc3ccccc3C2)cc1)S(C)(=O)=O | inactive: 72% |
| Cc1nc2c3ccccc3nc(NNC(=O)CCC(=O)N3CCN(c4cc(Cl)ccc4C)CC3)n2n1 | active: 55% |
| COc1ccc(OCC(=O)Nc2cccc(C(=O)OCc3cc(=O)n4nc(C)sc4n3)c2)cc1 | inactive: 107% |
| CCc1cccc(NC(=O)CSc2nc3ccccc3nc2N2CCCCC2)c1 | active: -6% |
| CNC(=O)CCCN1C(=O)CCn2nc(-c3cn(C)c4ccccc34)cc21 | inactive: 128% |
| COCc1cc(C)nc2sc(C(=O)Nc3ccc(C(C)=O)cc3)c(N)c12 | inactive: 81% |
| Cc1cccc(N2CCN(C(=O)c3cnn(-c4ccc(F)cc4F)c3C3CCN(C(=O)OC(C)(C)C)CC3)CC2)c1C | inactive: 82% |
| Cc1ccc(CNC(=O)Cn2nc(N3CCN(c4ccccc4)CC3)ccc2=O)cc1 | inactive: 61% |
| CCOc1ccc(NC(=O)CC2C(=O)N(c3ccccc3)C(=O)N2C2CCCC2)cc1 (stereo unspecified) | inactive: 73% |
| Cc1ccc(NC(=O)CSc2nc3ccccc3c(=O)n2CCC(=O)NC2CCCCC2)cc1C | inactive: 86% |
| CCOc1ccccc1NC(=O)c1cc2cc3cc(C)ccc3nc2s1 | inactive: 91% |
| CCOC(=O)c1cc2c(=O)n3ccccc3nc2n(Cc2ccco2)c1=NC(=O)c1cccc(C)c1 | active: 33% |
| CCCNC(=O)CSc1c2c(nc3ccc(Cl)cc13)CCCC2 | inactive: 62% |
| CCCn1c2ccccc2c2cnn(CC(=O)N(CC)c3cc(C)ccc3C)c(=O)c21 | inactive: 77% |
| O=C(O)CN1C(=O)/C(=N\N2C(=O)CSC2=S)c2ccccc21 | inactive: 73% |
| Cc1ccc2oc(=O)c3cnn(CC(=O)N4CCN(c5ccccc5F)CC4)c3c2c1 | inactive: 88% |
| Cc1ccc(NC(=O)Nc2cn(C)c(=O)c3ccccc23)c(Cl)c1 | inactive: 89% |
| Cc1cccc(N2CCN(C(=O)C3CCN(S(=O)(=O)c4c(C)noc4/C=C/c4ccccc4F)CC3)CC2C)c1 (stereo unspecified) | inactive: 80% |
| Cc1cc(=O)n(Cc2ccccc2)c2c1c(C)nn2-c1ccccc1 | inactive: 89% |

| SMILES | survival |
| --- | --- |
| CCc1ccccc1NC(=O)c1ccc(Cn2nc(N3CCN(c4ccccc4)CC3)ccc2=O)o1 | inactive: 75% |
| COc1cc(NC(=O)CCc2c(C)nc3c(-c4ccc(F)cc4)c(C)nn3c2C)cc(OC)c1OC | inactive: 123% |
| COc1ccc(C)cc1S(=O)(=O)NCc1ccccc1 | inactive: 75% |
| O=C(CNCc1ccco1)Nc1ccc(Oc2ccccc2)cc1 | inactive: 89% |
| COc1ccc(CNC(=O)C(Cc2ccccc2)NS(=O)(=O)c2ccc3c(c2)CCN3C(C)=O)cc1 (stereo unspecified) | inactive: 104% |
| CCCSc1ncc(Cl)c(C(=O)N2CCN(c3cccc(Cl)c3)CC2)n1 | active: 40% |
| Cc1ccc2c(C)nc(Nc3nccc(C)n3)nc2c1 | inactive: 94% |
| CCOc1ccc(NC(=O)CC2C(=O)N(c3ccc(OC)cc3)C(=O)N2C2CCCCC2)cc1 (stereo unspecified) | inactive: 110% |
| CCC(=O)N1CCc2cc(CNS(=O)(=O)c3ccc(C(C)C)cc3)ccc21 | inactive: 65% |
| CCOC(=O)c1c(NC(=O)/C=C/c2ccc(OCC)cc2)sc(C(C)=O)c1C | inactive: 62% |
| Cc1nn(-c2ccccc2)c2sc(C(=O)Nc3cccc(Cl)c3)cc12 | active: 2% |
| COc1cc2nc(NCCc3ccccc3)n3nc(-c4cccnc4)nc3c2cc1OC | inactive: 118% |
| COC(=O)c1ccc2c(=O)n(CCCCCC(=O)N3CCN(c4cc(C)ccc4C)CC3)c(=O)[nH]c2c1 | inactive: 82% |
| Cc1ccc(C)c(N2CCN(C(=O)CCS(=O)(=O)c3cc(Br)cc4c3N(C(=O)C3CC3)CC4)CC2)c1 | inactive: 62% |
| Cc1cc2nn(-c3ccc(F)cc3)nc2cc1NC(=O)c1cccc([N+](=O)[O-])c1C | inactive: 76% |
| COc1cccc(OC(=O)CSc2nnc(-c3cccs3)o2)c1 | inactive: 106% |
| CC(=O)Nc1ccc(Nc2nc3c(S(=O)(=O)c4cc(C)ccc4C)nnn3c3ccsc23)cc1 | inactive: 85% |
| COc1ccc(N2C(=O)CSC23C(=O)N(CC(=O)Nc2ccccc2F)c2ccccc23)cc1 (stereo unspecified) | inactive: 113% |
| COC(=O)c1ccc(Nc2nc(-c3ccccc3Cl)nc3ccccc23)cc1 | active: 21% |

| SMILES | survival |
| --- | --- |
| Clc1cccc(-c2nc3ccccn3c2Nc2ccc3c(c2)OCCO3)c1 | inactive: 83% |
| Cc1cccc(C(=O)Nc2cc3nn(-c4ccc(C(C)C)cc4)nc3cc2C)c1 | inactive: 76% |
| N#C/C(=C/c1ccccc1Cl)c1nc2ccccc2c(=O)[nH]1 | inactive: 53% |
| CCCCCCNC(=O)c1c[nH]c2ccc(S(=O)(=O)N(C)c3ccc(C(C)C)cc3)cc2c1=O | inactive: 95% |
| Cc1cc(C)c2nc(NCCNC(=O)C3CCCCC3)c(C#N)cc2c1 | inactive: 93% |
| COc1ccc(N2CCN(C3(c4ccccc4)C(=O)c4ccccc4C3=O)CC2)cc1 | inactive: 105% |
| Cc1ccc(Cl)cc1N(C)C(=O)c1cc2c(Cl)nc3ccccc3c2s1 | inactive: 54% |
| C=CCOc1c(Br)cc(CNCCCN2CCOCC2)cc1OC | inactive: 102% |
| O=C(C1CCC(Cn2c(=O)c3sccc3n(Cc3cccc(F)c3)c2=O)CC1)N1CCOCC1 (stereo unspecified) | inactive: 66% |
| Cc1nc2ccccn2c1C(=O)NC1CCCC1 | inactive: 82% |
| CCn1ccc2cc(S(=O)(=O)N3CCCN(C(=O)Nc4cccc(SC)c4)CC3)ccc21 | active: 47% |
| CCCNC(=O)C1CCN(C(=O)N2CC(C)Oc3ccccc32)CC1 (stereo unspecified) | inactive: 65% |
| COc1ccc(-n2ccnc2SCC(=O)Nc2cccc(OC)c2)cc1 | inactive: 98% |
| CCCCN(C)S(=O)(=O)c1ccc(NC2=NS(=O)(=O)c3ccccc32)cc1 | inactive: 79% |
| Cc1ccc(NC(=O)Cn2cc(C(=O)c3ccco3)c3ccccc32)cc1C | inactive: 60% |
| COc1ccccc1NC(=O)CSc1ccc(-c2ccccn2)nn1 | inactive: 42% |
| Cc1ccc(N(C)C(CNS(=O)(=O)c2ccccc2)c2ccccc2)cc1 (stereo unspecified) | inactive: 101% |
| COc1cccc(CNC(=O)Cn2nc(-c3ccc(C)cc3)ccc2=O)c1 | inactive: 75% |
